Data as given in PubChem BioAssay AID1487 (National Center for Advancing Translational Sciences (NCATS), 2009).
Screen size: about 200,000 compounds; about 25 (0.01%) were called active. About 23% were inconclusive and are not listed. The call rests on the fitted dose curve; in most records, active means well fitted inhibition curve with a large enough effect in the signal ratio, with a control signal flat (not every such curve was filed as active); inconclusive means small, poorly fitted or top-dose-only effect, or effect the other way, or a change in a side signal; inactive means flat fitted curve, though single readings scatter; the % refers to the signal ratio. The entries are a selection whose mix differs from that of the whole data set.

assay: qHTS Assay for Modulators of Lamin A Splicing; conditions: HeLa LMNA splicing GFP/RFP minigene ratio, 48 h; series mostly up to 46.1 µM; ratio change, negative = inhibition: at the top concentration
Method in brief: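 S3 HeLa cells stably expressing lamin A-EGFP splicing minigene plus DsRed2, 600 cells/well, 48 h compound exposure at 37C. Laser-scanning cytometry; analysed as GFP (500-530 nm)/RFP (575-640 nm) total intensity ratio; 0.5% DMSO vehicle.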
On the % scale 0 is the no-effect control and ±100 the full control effect; potency means the concentration at half of the fitted maximal effect.

Ratio change, negative = inhibition, inactive:
Cc1ccc(C(=O)N/C(=C/C=C/c2ccccc2)C(=O)NCc2ccco2)cc1 -1.32%, Nc1ccc(S(=O)(=O)Nc2ccnn2-c2ccccc2)cc1 -13%, Cc1cc(/C=C(/C#N)C(=O)Nc2ccccc2)c(C)n1-c1cccnc1 -5.18%, CC(C)NC[C@H](O)c1cc(O)cc(O)c1 -11.3%, O=C(O)C1=CCCNC1 -9.51%, CC12CCC(CC1)C(C)(C)O2 -11.6%, CCOC(=O)/C(=C/C=C/c1ccccc1)NC(=O)c1ccccc1 0.726%, NCCC(=O)NCCc1cnc[nH]1 -6.76%, O=C(Cn1ccnc1[N+](=O)[O-])NCCO -6.07%, CCCNC(C)C(=O)Nc1ccccc1C (stereo unspecified) -0.538%, CC(=O)c1ccc(S(=O)(=O)NC(=O)NC2CCCCC2)cc1 -18.9%, CCN1/C(=C\C(C)=O)Sc2ccc(OC)cc21 26.4%, N#C/C(=C\c1ccc(N2CCOCC2)o1)c1nc2ccccc2[nH]1 32.9%, Cc1scc2c1N(C(=O)CN1CCN(C)CC1)c1ccccc1NC2=O -16.4%, CCN1C(=O)N[C@@H](c2ccccc2)[C@@H](C(=O)OC)[C@H]1C -0.0326% [at 9.22 µM], CC(C)(C)NC[C@H](O)COc1nsnc1N1CCOCC1 -8.26%, COC(=O)[C@H](C)[C@H]1C[C@]1(C)[C@H](NC(=O)OCc1ccccc1)c1ccccc1 12%, CCCC(=O)Nc1ncnc2c1ncn2[C@@H]1O[C@@H]2COP(=O)(O)O[C@H]2[C@H]1OC(=O)CCC 1.48%, CN(C)C(=N)N=C(N)N -0.593%, Cn1nnnc1SCC1=C(C(=O)O)N2C(=O)[C@@H](NC(=O)[C@H](O)c3ccccc3)[C@H]2SC1 4.22%, Nc1ccc(S(=O)(=O)c2ccc(N)cc2)cc1 -12.6%, N#C/C(=C\c1ccc(N2CCCC2)c([N+](=O)[O-])c1)c1nc2ccccc2[nH]1 19.3%, NCCS(=O)(=O)O -20.1%, COc1nc(C)nc(Cl)c1NC1=NCCN1 -3.92%, Cc1ccc(S(=O)(=O)NC(=O)NN2CC3CCCC3C2)cc1 (stereo unspecified) -7.35%, O=c1[nH]c2ccccc2c2ccccc12 -9.48% [at 46 µM], C#CCN(C)Cc1ccccc1 -12.6%, CN/C(=C/[N+](=O)[O-])NCCSCc1ccc(CN(C)C)o1 4.19%, O=C(CCCN1CC=C(n2c(=O)[nH]c3ccccc32)CC1)c1ccc(F)cc1 -7.14% [at 46 µM], CCN(CC)CCNC(=O)c1cc(S(C)(=O)=O)ccc1OC -7.5%, Oc1c(I)cc(I)c2cccnc12 -4.34%, O=C1S/C(=C\c2ccccc2)C(=O)N1CC(O)Cn1c2ccccc2c2ccccc21 (stereo unspecified) -15.9%, COC(=O)C1=C(C)N(Cc2ccco2)C(=O)N[C@H]1c1ccccc1 -2.69%, CC(=O)Nc1c(I)c(NC(C)=O)c(I)c(C(=O)O)c1I -2.55%, Cc1ccc(C(=O)Nc2ccc(S(=O)(=O)O)c3cc(S(=O)(=O)O)cc(S(=O)(=O)O)c23)cc1NC(=O)c1cccc(NC(=O)Nc2cccc(C(=O)Nc3cc(C(=O)Nc4ccc(S(=O)(=O)O)c5cc(S(=O)(=O)O)cc(S(=O)(=O)O)c45)ccc3C)c2)c1 -1.51%, O=c1cc(O)nc(SCc2ccccc2)n1-c1ccccc1 5.07%, Cn1c(SCC(=O)N/N=C/C=C/c2ccco2)nc2ccccc21 6.47%, C[C@]12C=CC(=O)C=C1CC[C@@H]1[C@@H]2C(=O)C[C@@]2(C)[C@H]1CC[C@]2(O)C(=O)CO -9.59%, NCC(O)c1ccc(O)c(O)c1 (stereo unspecified) -25.6%, O=C(O)C1=CCNCC1 -4.46%

Potency, active:
O=C1/C(=C/c2cccnc2)SC(=S)N1C1CCS(=O)(=O)C1 (stereo unspecified) 20 µM

Potency, inactive:
COc1ccc(CN(CCN(C)C)c2ccccn2)cc1, COc1ccc(NS(=O)(=O)c2ccc(N)cc2)nn1, CCN(Cc1ccncc1)C(=O)C(CO)c1ccccc1 (stereo unspecified), Cc1ccc(/C(=C\CN2CCCC2)c2ccccn2)cc1, NS(=O)(=O)c1cc2c(cc1Cl)NCNS2(=O)=O
